# Out of some 110,000 compounds screened, about 40 (0.04%) were called active. Inconclusive results, whose numbers are uncertain, are shown with a selection of clear calls. Calls come from the whole dose curve; as a rule, active = well fitted curve in the direction sought with a large enough effect in the signal ratio (not every such curve was filed as active); inconclusive = small, poorly fitted or top-dose-only effect, or a change in a side signal; inactive = flat fitted curve, though single readings scatter; the % refers to the signal ratio. Potencies of inconclusive entries are doubtful fits and often do not repeat.
# Test: IkB Signaling;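 for IkBa stabilization activation: 0% = basal untreated cells and 100% = reference inhibitor full response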
# Conditions: ABC-DLBCL IkBa-CBG/CBR dual luciferase ratio (green luciferase fused to IkBa over red control in OCI-Ly3 lymphoma cells), 4 h, scaled: untreated 0%
# In short: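 In this assay, an IκBα–CBG68 fusion accumulates when IKK-driven degradation is blocked; native CBR normalizes for cell number. OCI-Ly3 cells were treated 4 h with compound and doxycycline, then green and red light read after Chroma-Glo addition.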
# [1] = IkBa stabilization activation: at 57.1 µM (top of the series), proteasome inhibitor 100% unless noted
# Potency is the fitted concentration of half-maximal effect.
structure (smiles),measurement,setting,value
Cc1cnc(CNc2cc(-c3ccccc3Cl)ncn2)cn1,IkBa stabilization activation,[1],"inactive: -3.58% [at 11.4 µM, scaled: untreated 0%, proteasome inhibitor 100%]"
COc1ccccc1NC(=O)C1=C(C)Nc2nc(-c3ccco3)nn2C1c1ccccc1F (centres undefined),IkBa stabilization activation,[1],inconclusive: 7.06% [signal inhibitor]
C[C@H](Br)C(=O)Nc1ccc(C(=O)O)c(O)c1,IkBa stabilization activation,[1],"inactive: -0.921% [at 11.4 µM, scaled: untreated 0%, proteasome inhibitor 100%]"
Cc1cc(F)ccc1S(=O)(=O)Nc1ccccc1C(=O)Nc1ccc2[nH]c(=O)[nH]c2c1,IkBa stabilization activation,[1],inconclusive: 7.65% [signal inhibitor]
CCc1ccc(NC(=O)Cn2cc(S(=O)(=O)c3ccc(F)cc3)c(=O)c3cc(OC)ccc32)cc1,IkBa stabilization activation,[1],inactive
CC(=O)c1ccc(NC(=O)CCc2c(C)nn(-c3ccc4nnc(C)n4n3)c2C)cc1,IkBa stabilization activation,[1],inconclusive: 0.866% [signal inhibitor]
Nc1c(S(=O)(=O)c2cccs2)c2nc3ccccc3nc2n1Cc1ccc2c(c1)OCO2,IkBa stabilization activation,[1],inconclusive: 2.45% [signal inhibitor]
CSCCC(N=Cc1c(O)n(-c2ccc(F)cc2)c(=O)[nH]c1=O)C(=O)O (centres undefined),IkBa stabilization activation,[1],inactive
O=C(CSc1nc(-c2ccccc2)nc2cc(=O)[nH]n12)Nc1ccccc1,IkBa stabilization activation,[1],inconclusive: 4.79% [signal inhibitor]
Nc1nccc(Nc2ccc(S(N)(=O)=O)cc2)n1,IkBa stabilization activation,[1],"inactive: -0.442% [at 11.4 µM, scaled: untreated 0%, proteasome inhibitor 100%]"
Cc1ccccc1C(=O)N1c2ncnn2C2(CCCCC2)[C@@H]2CCCC[C@@H]21,IkBa stabilization activation,[1],inconclusive: 0.113% [signal inhibitor]
CC(C)Nc1nc2c(-c3cccc(Br)c3)nnn2c2ccccc12,Potency,[1],"inconclusive: 3.98 µM [signal inhibitor, partial curve]"
CCc1c(C)sc2c1CCN(C(=O)Nc1cc(C)ccc1C)C2c1ccc(OC)cc1 (centres undefined),IkBa stabilization activation,[1],inconclusive: -0.132% [signal inhibitor]
Cc1nc(-c2cccc(S(=O)(=O)N3CCC(C(=O)NCc4ccccc4Cl)CC3)c2)no1,IkBa stabilization activation,[1],inconclusive: -0.979% [signal inhibitor]
Cn1nc(-c2ccccc2F)c2cc(C(=O)NCc3cccc(Cl)c3)sc21,IkBa stabilization activation,[1],inconclusive: 4.95% [signal inhibitor]
Cc1cc(C)cc(NC(=O)c2cc(S(=O)(=O)N3CCCC3)ccc2F)c1,IkBa stabilization activation,[1],inconclusive: 14% [signal inhibitor]
Cc1ccc(C)c(NC(=O)c2nnn(Cc3ccc(F)cc3Cl)c2N)c1,IkBa stabilization activation,[1],inconclusive: 3.69% [signal inhibitor]
O=C(CN1CCOCC1)Nc1ccc(-c2nc3ccccc3[nH]2)cc1,IkBa stabilization activation,[1],inactive
O=C(NCCc1ccccc1)c1cnc2sc(N3CCCCC3)nn2c1=O,IkBa stabilization activation,[1],inactive
COc1cc(OC)c(NC(=O)N2CCc3cc(S(=O)(=O)N4CCC(C)CC4)ccc32)cc1Cl,IkBa stabilization activation,[1],inconclusive: 2.29% [signal inhibitor]
Cc1ccc2[nH]c(=O)c(C(c3nnnn3C(C)(C)C)N(Cc3ccco3)CC3CCCO3)cc2c1 (centres undefined),IkBa stabilization activation,[1],inconclusive: 14.2% [signal activator]
O=C(c1cc2c(s1)-c1ccccc1OC2)N1CCN(c2ccc(F)cc2)CC1,IkBa stabilization activation,[1],inconclusive: -0.543% [signal inhibitor]
COc1ccc(C(=O)CN2CCN(c3ccc(F)cc3)CC2)cc1OC,IkBa stabilization activation,[1],inconclusive: 8.89% [signal inhibitor]
Cc1ccccc1Nc1nc(N)nc(COC(=O)CCS(=O)(=O)c2ccccc2)n1,Potency,[1],"inconclusive: 25.1 µM [signal inhibitor, partial curve]"
COc1ccc(NC(=O)Cn2c(=O)n(Cc3ccco3)c(=O)c3oc4ccccc4c32)cc1Cl,IkBa stabilization activation,[1],inconclusive: 5.51% [signal inhibitor]
CC1CCc2nc(NC(=O)CN3CCN(Cc4ccc5c(c4)OCO5)CC3)sc2C1 (centres undefined),IkBa stabilization activation,[1],inconclusive: 2.94% [signal inhibitor]
Cc1ccccc1CNCc1c(C(=O)O)c(C)n(Cc2ccc(F)cc2Cl)c1C,IkBa stabilization activation,[1],inconclusive: 1.75% [signal inhibitor]
COc1ccc(-n2ncc3c2ncn2nc(Cc4ccccc4)nc32)cc1,IkBa stabilization activation,[1],inconclusive: 2% [signal inhibitor]
CC(=O)Nc1ccc(C(=O)Nc2ccc3c(c2)N(C2CCCC2)C(=O)c2ccccc2S3)cc1,IkBa stabilization activation,[1],inconclusive: -2.97% [signal inhibitor]
CCOc1ccc(C(=O)Nc2cc(C)on2)cc1OCC,IkBa stabilization activation,[1],inactive
Clc1ccccc1CN1CCc2nc(N3CCN(c4ncccn4)CC3)ncc2C1,IkBa stabilization activation,[1],inconclusive: 0.951% [signal inhibitor]
Cc1nnc(N2CCC(C(=O)NC(C)C)CC2)c2nn(-c3ccccc3)c(C)c12,IkBa stabilization activation,[1],inactive
COc1ccc(C(=O)Nc2ccc(OC)c(OC)c2)cc1,IkBa stabilization activation,[1],inactive
CCCSc1nc2c(c(=O)[nH]c(=O)n2C)n1Cc1ccc(C)cc1,IkBa stabilization activation,[1],inactive
Cc1oc(-c2ccccc2Cl)nc1CS(=O)(=O)CC(=O)NC(C)c1ccccc1 (centres undefined),IkBa stabilization activation,[1],inconclusive: 0.308% [signal inhibitor]
Cc1ccc(-n2nc(C)c3c(-c4cccs4)c(C#N)c(N)nc32)cc1,IkBa stabilization activation,[1],inactive
CC1CN(c2oc(-c3ccco3)nc2S(=O)(=O)c2ccccc2)CC(C)O1 (centres undefined),IkBa stabilization activation,[1],inactive
c1ccc(N2CCN(c3nc4cc5c(cc4s3)OCCO5)CC2)cc1,IkBa stabilization activation,[1],inactive
COc1ccc2[nH]cc(CCNc3ncnc4ccc(-c5ccccc5C#N)cc34)c2c1,IkBa stabilization activation,[1],"inactive: -8.51% [at 11.4 µM, scaled: untreated 0%, proteasome inhibitor 100%]"
CCCc1c(OCCCOc2ccc(OCC(=O)O)cc2)ccc(C(C)=O)c1O,IkBa stabilization activation,[1],inactive
CCOc1ccccc1CNC(=O)CSc1nnc(C)c2c(C)n(-c3ccccc3)nc12,IkBa stabilization activation,[1],inconclusive: -2.41% [signal inhibitor]
Cc1ccc(S(=O)(=O)c2c(N)n(CC3CCOC3)c3nc4ccccc4nc23)cc1 (centres undefined),IkBa stabilization activation,[1],inconclusive: 1.98% [signal inhibitor]
COc1cccc(Oc2cn[nH]c2-c2ccc(OC)cc2O)c1,IkBa stabilization activation,[1],inactive
COCc1cc(=O)[nH]c(/N=C(\N)Nc2ccc(C)cc2)n1,IkBa stabilization activation,[1],inactive
Cc1ccc(CN(C(=O)COc2ccc([N+](=O)[O-])cc2)c2ccccn2)o1,IkBa stabilization activation,[1],inconclusive: -0.137% [signal inhibitor]
Cc1ccc(Nc2ncc(C(=O)Nc3ccc(F)cc3F)c3ccccc23)cc1Cl,IkBa stabilization activation,[1],inconclusive: 5.54% [signal inhibitor]
COc1ccc(CNC(=O)c2nn(C)c3c2CS(=O)(=O)c2ccccc2-3)cc1,IkBa stabilization activation,[1],inconclusive: 2.61% [signal inhibitor]
O=C(COc1ccccc1)Nc1nnc(SCc2cc(=O)n3cc(Cl)ccc3n2)s1,IkBa stabilization activation,[1],inconclusive: 3.99% [signal inhibitor]
CCc1nnc(SCC(=O)Nc2cccc(C(F)(F)F)c2)c2cc3oc(C)cc3n12,IkBa stabilization activation,[1],inconclusive: 3.96% [signal inhibitor]
CCOC(=O)Cc1c(C)nc2c(-c3ccc(Cl)cc3)c(C(F)(F)F)nn2c1C,IkBa stabilization activation,[1],inconclusive: 0.749% [signal inhibitor]
CCCc1nn2cc(-c3ccc(C)c(C)c3)nc2s1,Potency,[1],"inconclusive: 31.6 µM [signal inhibitor, single point]"
COc1ccc(/C=C/C(=O)Nc2ccc3nc4c(c(Nc5ccc(OC)c(OC)c5)c3c2)CCCC4)cc1,IkBa stabilization activation,[1],inconclusive: -0.752% [signal inhibitor]
COc1ccc(-c2noc(CSc3nnc(Cc4ccccc4)n3-c3cccc(C)c3)n2)cc1,IkBa stabilization activation,[1],inconclusive: 1.93% [signal inhibitor]
Cc1ccc(NC(=O)c2oc3ccccc3c2NC(=O)C23CC4CC(CC(C4)C2)C3)cc1,IkBa stabilization activation,[1],inconclusive: 0.92% [signal inhibitor]
COc1ccc(C(=N/O)/C(=N/O)c2ccc(OC)cc2)cc1,IkBa stabilization activation,[1],inactive
Cc1ccc(C(=O)NCc2ccccc2)cc1NC(=O)c1nsc2ccccc12,IkBa stabilization activation,[1],inconclusive: 0.176% [signal inhibitor]
C=C(C)COc1ccc(-c2n[nH]c(C)c2-c2ccccc2)c(O)c1,IkBa stabilization activation,[1],inconclusive: -5.47% [signal inhibitor]
CCOC(=O)c1c(C)[nH]c(C)c1S(=O)(=O)N1CCC(C(=O)Nc2ccc(C)c(N(C)C)c2)CC1,IkBa stabilization activation,[1],inactive
Cn1cc(C(=O)NCCc2ccccc2)c(=O)c2cc(S(=O)(=O)N3CCCCC3)ccc21,IkBa stabilization activation,[1],inconclusive: 6.53% [signal inhibitor]
CC(C)(C)OC(=O)N1CCC(c2c(C(=O)N3CCN(Cc4ccccc4)CC3)cnn2-c2ccc(Cl)cc2)CC1,IkBa stabilization activation,[1],inconclusive: 1.86% [signal inhibitor]
Cc1cc(-c2ccc(C)c(S(=O)(=O)NCc3cccs3)c2)on1,IkBa stabilization activation,[1],inactive
c1ccc2c(c1)CCN(c1ncnc3nc[nH]c13)C2,IkBa stabilization activation,[1],inconclusive: 8.68% [signal activator]
CCc1ccc(OCC(=O)Nc2cc(-c3nc4cc(C)ccc4o3)ccc2C)cc1,Potency,[1],"inconclusive: 0.794 µM [signal inhibitor, full curve]"
O=S(=O)(c1cccc2c(Cl)cccc12)N1CCCNCC1,IkBa stabilization activation,[1],inconclusive: 0.252% [signal inhibitor]
same,IkBa stabilization activation,"at 57.1 µM (top of the series), proteasome inhibitor 100%",inactive: -6.78%
COc1ccc(S(=O)(=O)N2CCCC(C(=O)Nc3cccc(C(C)=O)c3)C2)cc1 (centres undefined),IkBa stabilization activation,[1],inconclusive: 1.08% [signal inhibitor]
CCOc1ccc(C(=O)Nc2cc(C)on2)cc1,IkBa stabilization activation,[1],inactive
C=C(C)Cn1c(SCC(=O)c2ccccc2)nc2sc3c(c2c1=O)CCCC3,IkBa stabilization activation,[1],inactive
Cc1cc(Nc2ccccc2Br)n2nc(C)nc2n1,IkBa stabilization activation,[1],inactive

# From PubChem BioAssay AID445 (National Center for Advancing Translational Sciences (NCATS), 2006)
